Measurements reported in article PMC12136788.
This is one part of the list.

T1: UNK ZnF1-3 (human, UniProt Q9C0B0 31-174)
T1 sequence: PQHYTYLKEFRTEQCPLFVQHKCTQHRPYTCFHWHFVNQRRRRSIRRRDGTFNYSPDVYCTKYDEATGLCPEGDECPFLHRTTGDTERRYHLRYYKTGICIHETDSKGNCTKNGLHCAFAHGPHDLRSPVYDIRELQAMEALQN

B1: chr10:88199856:88199857:+_ENSMUSG00000060904_ENSMUST00000116234|mus_mus|motif|central (ssRNA)
RNA: GGGAGUUCUACAGUCCGACGAUCUGCAUCUGUGUUUGAAUAAUAACAUCUCCAGUAUGGCCUGAUACUUGUCUGUCCUCCGGAGUCCCAAACUUGGAAUUUGAGAUUUUUGUAUGUCACCGUCUCCACAUUAAAUCCAAUAGUCAACAGAGGAUUGAGCAUCA
B2: 63821821_63821941_3485_3pUTR_ENSMUSG00000027823_ENSMUST00000029405|mouse|control|control (ssRNA)
RNA: GGGAGUUCUACAGUCCGACGAUCUUCUCACUGGGACAAUGAACACUUCAGCUUUUGUAGAAGACAAAUAGUGUUUCCAGUGUGGAUGUCUGCUGUUAGAGAUCUUUUCCUCUUGGUUCAGCAGCAGUUUCUGGCUAUCUAUAGCAACAGAGGAUUGAGCAUCA
B3: 95862298_95863879_1011_CDS_ENSG00000164941_ENST00000520526|human|control|control (ssRNA)
RNA: GGGAGUUCUACAGUCCGACGAUCUCAUACCAUGUAAUUCAAUUAAAAUUUGUCUAAUCCUCCAAGGAUCCACUGACAAUAUAAGUUGAUGCUCUAACUGACCAAUGUUGACACUUGCUGAAGCUGGGAUAUCAUAAAAUGAAGCAACAGAGGAUUGAGCAUCA
B4: chr17:32491106:32491107:-_ENSMUSG00000024050_ENSMUST00000163107|mus_mus|FALSE|FALSE (ssRNA)
RNA: GGGAGUUCUACAGUCCGACGAUCCAUUGAUAACCAAAAGGUGGCCACUGAAAAGGUUAAAAGGUCAAUUAGCUCCCGGUAUCUAGCUGGCCCAGGAUUGCAAAAUAAAAAGAUCCACGUUCCUUAUUCUCUACACAAAACGCACAACAGAGGAUUGAGCAUCA
B5: chr11:79222206:79222207:+_ENSMUSG00000020716_ENSMUST00000071325|mus_hu|FALSE|FALSE (ssRNA)
RNA: GGGAGUUCUACAGUCCGACGAUCUUUUGUAAAUUCAUCUGGAUAAUUUUCUACCCAGUUCCAAAAUGCCUUUUCCAGGCUAUUUAUAACUGCUAACUGCGCAACCUUCUUUAGGGCUUUAAAUUUAAAUGCUGUUUCCUUCAGCAACAGAGGAUUGAGCAUCA
B6: chr5:132216804:132216805:-_ENSG00000072364_ENST00000265343|hu_hu|FALSE|FALSE (ssRNA)
RNA: GGGAGUUCUACAGUCCGACGAUCAGAUAUCAACUUGGCAUCCUGGCGAAGCCAGUGCAGUCCCUGCCGGGUAUAACGAACUAGAUCUGUCAUGAUGCUUGCAUUAAAGAUGAGAGGGCCCAUUACUUUAUCCAGUUCAGCAAACAACAGAGGAUUGAGCAUCA

Biological target: T1, UNK ZnF1-3
Assay: nsRBNS (natural sequence RNA bind-n-seq); RBNS binding buffer (assumed for nsRBNS): 25 mM Tris pH 7.5, 150 mM KCl, 3 mM MgCl2, 0.01% Triton X-100, 500 ug/ml BSA, 20 U/ml SUPERase-In, 4 C; UNK is unkempt and MSI1 is Musashi-1; names of the RNAs are library labels; protein concentration not given here; high values mean tight binding

Binder | binding signal [enrichment R]
B1 | 0.943
B2 | 0.753
B3 | 1.33
B4 | 1.27
B5 | 0.853
B6 | 1.02
